This note sets out measurements from PubChem BioAssay AID220 (DTP/NCI, 2004).

Inconclusive results are not listed. A number of entries come with more than one value. They are shown here; other results are not. An entry can have further records. The values listed for one entry differ for a reason that is not stated; some may be repeats, others may stem from another dose, organism or construct than stated.

The test system of this test is CD8F1 mice, subcutaneous mammary adenocarcinoma, T/C%. Kind of test: NCI In Vivo Anticancer Drug Screen. Data for tumor model Mammary Adenocarcinoma CD8F1 (subcutaneous) in CD8F1. Particulars: higher = larger tumour. As to the method:
The antitumor activity of compounds was measured in mice bearing transplantable tumors. Survival or tumor size were measured and the results are expressed as the measurement made in the treated group (T) divided by the measurement made in the vehicle treated control group (C). The tumor model used in this assay is Mammary Adenocarcinoma CD8F1 (subcutaneous) in CD8F1

Setting [1] is: endpoint: median tumor weight change, dose: 250.0 mg/kg/injection, schedule: Q01DX001 (ip), vehicle: saline.
Where [2] appears, read: endpoint: median tumor weight change, dose: 125.0 mg/kg/injection, schedule: Q01DX001 (ip), vehicle: saline with Tween-80.
The mark [3] stands for this setting: endpoint: median tumor weight change, dose: 250.0 mg/kg/injection, schedule: Q01DX001 (ip), vehicle: saline with Tween-80.
Setting [4] is: endpoint: median tumor weight (est.), dose: 12.5 mg/kg/injection, schedule: Q07DX005 (ip), vehicle: Klucel (hydroxypropylcellulose) (HPC).
The mark [5] stands for this setting: endpoint: median tumor weight (est.), dose: 25.0 mg/kg/injection, schedule: Q07DX005 (ip), vehicle: Klucel (hydroxypropylcellulose) (HPC).
Setting [6] is: endpoint: median tumor weight change, dose: 125.0 mg/kg/injection, schedule: Q01DX001 (ip), vehicle: Klucel (hydroxypropylcellulose) (HPC).

With `Nc1ncn(C2OC(CO)C(O)C2O)c(=O)n1` (stereo not given), the T/C is -44 % of control and 64 % of control (endpoint: median tumor weight change, dose: 40.0 mg/kg/injection, schedule: Q01DX001 (ip), vehicle: saline); -57 % of control, 21 % of control, 76 % of control (endpoint: median tumor weight change, dose: 60.0 mg/kg/injection, schedule: Q01DX001 (ip), vehicle: saline); -50 % of control and 35 % of control (endpoint: median tumor weight change, dose: 90.0 mg/kg/injection, schedule: Q01DX001 (ip), vehicle: saline); 7 % of control and 58 % of control (endpoint: median tumor weight change, dose: 900.0 mg/kg/injection, schedule: Q01DX001 (ip), vehicle: suspension in saline).

`CCC(C(=O)O)C(=O)O.[NH2-].[NH2-].[Pt+2]`: under setting [1], the T/C was -64 % of control and -6 % of control. With `Nc1ccc2c(c1)CN1C(=O)c3ccccc3C1=N2`, the T/C under setting [2] was 43 % of control, 101 % of control, 120 % of control. For `OC1(CSc2ccccc2)CCCCC1`, the T/C is 50 % of control and 95 % of control under setting [2]; 96 % of control, 106 % of control, 174 % of control under setting [3]; 43 % of control, 78 % of control, 107 % of control (endpoint: median tumor weight change, dose: 500.0 mg/kg/injection, schedule: Q01DX001 (ip), vehicle: saline with Tween-80). On to `COC1=C2C[C@@H](C)C[C@@H](OC)[C@@H](O)[C@H](C)/C=C(\C)[C@@H](OC(N)=O)[C@H](OC)/C=C\C=C(/C)C(=O)NC(=CC1=O)C2=O`, for which the T/C (endpoint: median tumor weight change, dose: 10.0 mg/kg/injection, schedule: Q01DX001 (ip), vehicle: saline with Tween-80) was 43 % of control and 107 % of control.

Take `CC[N+](CC)(CC)CC`: the T/C runs as follows: (endpoint: median tumor weight change, dose: 18.0 mg/kg/injection, schedule: Q01DX001 (ip), vehicle: saline with Tween-80) 20 % of control and 56 % of control; (endpoint: median tumor weight change, dose: 26.0 mg/kg/injection, schedule: Q01DX001 (ip), vehicle: saline with Tween-80) -20 % of control and 13 % of control. For `COC(=O)C[C@](O)(CCC(C)(C)O)C(=O)O[C@@H]1C(OC)=C[C@]23CCCN2CCc2cc4c(cc2[C@H]13)OCO4`, for the setting “endpoint: median tumor weight change, dose: 5.0 mg/kg/injection, schedule: Q01DX001 (ip), vehicle: saline”, the T/C is 59 % of control and 113 % of control. In the case of `CC[C@@]1(O)C(=O)OCc2c1cc1n(c2=O)Cc2cc3ccccc3nc2-1`, the T/C (endpoint: median tumor weight change, dose: 3.0 mg/kg/injection, schedule: Q01DX001 (ip), vehicle: saline with Tween-80) is 93 % of control and 119 % of control. Consider `O=C1CN(CCN2CC(=O)N(CN3CCOCC3)C(=O)C2)CC(=O)N1CN1CCOCC1`, for which, for the setting “endpoint: median tumor weight change, dose: 250.0 mg/kg/injection, schedule: Q01DX001 (ip), vehicle: water”, the T/C was 21 % of control and 53 % of control. On to `O=C1C(NCC(O)CO)=C(N2CC2)C(=O)C(NCC(O)CO)=C1N1CC1` (stereo not given), for which the T/C runs as follows: (endpoint: median tumor weight change, dose: 16.0 mg/kg/injection, schedule: Q01DX001 (ip), vehicle: suspension in saline) -36 % of control, 20 % of control, 23 % of control; (endpoint: median tumor weight change, dose: 32.0 mg/kg/injection, schedule: Q01DX001 (ip), vehicle: suspension in saline) -60 % of control, -35 % of control, 2 % of control. Regarding `CC(=O)NCCCCCCNC(C)=O`, the T/C is, setting by setting: under setting [1], 59 % of control and 93 % of control; (endpoint: median tumor weight change, dose: 2000.0 mg/kg/injection, schedule: Q01DX001 (ip), vehicle: saline) 36 % of control and 97 % of control. `N#CC(=C1C=CC(=NO)C=C1)c1ccc(Cl)cc1`: the T/C (endpoint: mean tumor weight, dose: 25.0 mg/kg/injection, schedule: Q07DX006 (ip), vehicle: saline with Tween-80) was 53 % of control and 84 % of control; the T/C (endpoint: mean tumor weight, dose: 50.0 mg/kg/injection, schedule: Q07DX006 (ip), vehicle: saline with Tween-80) is 46 % of control and 75 % of control. `O=C(CCCN1CCC(O)(c2cccc(C(F)(F)F)c2)CC1)c1ccc(F)cc1`: the T/C was 106 % of control and 160 % of control (endpoint: median tumor weight (est.), dose: 6.25 mg/kg/injection, schedule: Q07DX005 (ip), vehicle: Klucel (hydroxypropylcellulose) (HPC)); 58 % of control and 89 % of control under setting [4]; 72 % of control and 110 % of control under setting [5]. As for `S=C(Nc1ccc(Cl)c(Cl)c1)N1c2ccccc2-n2cccc2C1c1cccnc1` (stereo not given), the T/C under setting [6] is 57 % of control and 101 % of control.

Take `Clc1ccc(C2SC=Cc3ccccc32)cc1` (stereo not given): the T/C under setting [6] is 55 % of control, 95 % of control, 101 % of control; the T/C (endpoint: median tumor weight change, dose: 500.0 mg/kg/injection, schedule: Q01DX001 (ip), vehicle: Klucel (hydroxypropylcellulose) (HPC)) was 15 % of control and 69 % of control. Turning to `COC1OC(CO)C(O)C(NC(=O)N(C)N=O)C1O` (stereo not given), the T/C (endpoint: median tumor weight change, dose: 62.5 mg/kg/injection, schedule: Q01DX001 (ip), vehicle: saline) was 61 % of control and 87 % of control. In the case of `COc1ccc2nc3cc(Cl)ccc3c(NCCNCCNCCNc3c4ccc(Cl)cc4nc4ccc(OC)cc34)c2c1`, for the setting “endpoint: median tumor weight (est.), dose: 100.0 mg/kg/injection, schedule: Q07DX005 (ip), vehicle: saline with Tween-80”, the T/C is 24 % of control and 92 % of control. In the case of `CNC(=O)c1cccc2c(Nc3ccc(NS(C)(=O)=O)cc3OC)c3cccc(C)c3nc12`, the T/C was 41 % of control and 67 % of control (endpoint: median tumor weight change, dose: 15.0 mg/kg/injection, schedule: Q01DX001 (ip), vehicle: other); 24 % of control and 84 % of control (endpoint: median tumor weight change, dose: 30.0 mg/kg/injection, schedule: Q01DX001 (ip), vehicle: other); -43 % of control and 28 % of control (endpoint: median tumor weight change, dose: 60.0 mg/kg/injection, schedule: Q01DX001 (ip), vehicle: other). Take `C[CH2][Ge]([CH2]C)[CH2]C.C[CH2][Ge]([CH2]C)[CH2]C.C[CH2][Ge]([CH2]C)[O][Ge]([CH2]C)[CH2]C`: under setting [3], the T/C is 77 % of control and 117 % of control. Consider `O=c1cc(CCl)[nH]nc1CCl`, for which, under “endpoint: median tumor weight (est.), dose: 25.0 mg/kg/injection, schedule: Q07DX005 (ip), vehicle: saline with Tween-80”, the T/C was 42 % of control and 72 % of control. Take `CN(C)c1ccc2c(N(C)C)cc(N(C)C)nc2c1`: the T/C is, setting by setting: under setting [4], 39 % of control and 115 % of control; under setting [5], 39 % of control and 75 % of control; (endpoint: median tumor weight (est.), dose: 50.0 mg/kg/injection, schedule: Q07DX005 (ip), vehicle: Klucel (hydroxypropylcellulose) (HPC)) 42 % of control and 123 % of control. Regarding `Cc1ccc2c(c1)N=C(Nc1ccccc1)N=S2(C)=O` (stereo not given), the T/C is 40 % of control and 93 % of control (endpoint: median tumor weight change, dose: 62.5 mg/kg/injection, schedule: Q01DX001 (ip), vehicle: saline with Tween-80); 58 % of control, 69 % of control, 115 % of control under setting [3]. With `CC(=O)Nc1cscc1NC(C)=O`, the T/C under setting [2] is 66 % of control and 107 % of control. Turning to `ClCCCN1CCCCC1CCl` (stereo not given), for the setting “endpoint: median tumor weight (est.), dose: 12.5 mg/kg/injection, schedule: Q07DX005 (ip), vehicle: saline”, the T/C is 45 % of control and 95 % of control. For the compound `Nc1ncnc2c1ncn2C1C=C(CO)C(O)C1O` (stereo not given), the T/C (endpoint: median tumor weight change, dose: 10.0 mg/kg/injection, schedule: Q01DX001 (ip), vehicle: suspension in saline) was 74 % of control and 122 % of control. With `CN1C(=O)C(=Cc2ccc(O)cc2)C(=O)N(C)C1=O`, the T/C under setting [3] is 94 % of control and 183 % of control. Consider `C=C1C(C)C2C(Cc3ccccc3)NC(=O)C23C(OC(C)=O)/C=C/C(C)(O)CC(C)C/C=C/C3C1O` (stereo not given), for which the T/C (endpoint: median tumor weight change, dose: 3.75 mg/kg/injection, schedule: Q01DX001 (ip), vehicle: Klucel (hydroxypropylcellulose) (HPC)) is 70 % of control and 197 % of control. Turning to `Cc1cc(NCCCCCCCCNc2cc(C)nc3cc(N(C)C)ccc23)c2ccc(N(C)C)cc2n1`, the T/C is, setting by setting: (endpoint: median tumor weight change, dose: 31.25 mg/kg/injection, schedule: Q01DX001 (ip), vehicle: distilled water + Tween-80 + alcohol) 60 % of control and 100 % of control; (endpoint: median tumor weight change, dose: 31.25 mg/kg/injection, schedule: Q01DX001 (ip), vehicle: distilled water + Tween-80) 64 % of control and 156 % of control; (endpoint: median tumor weight change, dose: 62.5 mg/kg/injection, schedule: Q01DX001 (ip), vehicle: distilled water + Tween-80 + alcohol) 9 % of control and 114 % of control. `C[C@]12C=CC(=O)C=C1CC[C@@H]1[C@@H]2[C@@H](O)C[C@@]2(C)[C@H]1CC[C@]2(O)C(=O)CO`: the T/C (endpoint: median tumor weight change, dose: 400.0 mg/kg/injection, schedule: Q01DX001 (ip), vehicle: Klucel (hydroxypropylcellulose) (HPC)) is 45 % of control, 71 % of control, 103 % of control.

With `O=C1C(NCCO)=C(N2CC2)C(=O)C(NCCO)=C1N1CC1`, the T/C (endpoint: median tumor weight change, dose: 1.25 mg/kg/injection, schedule: Q01DX001 (ip), vehicle: saline) was -12 % of control and 60 % of control; the T/C (endpoint: median tumor weight change, dose: 2.5 mg/kg/injection, schedule: Q01DX001 (ip), vehicle: saline) is -71 % of control, 35 % of control, 80 % of control.
